Data taken from PubChem BioAssay AID485344 (National Center for Advancing Translational Sciences (NCATS), 2010).
Among all 340,000 compounds or so, about 6,900 (2%) were called active. No stated cut-off is given here; in the data, active means inhibition above about 30%; inactive means below that, where a call was filed. The entries are a selection whose mix differs from that of the whole data set. Entries without a call were filed so in the source.

target: D(2) dopamine receptor (Homo sapiens) (UniProt P14416); experiment: HTS Assay for Allosteric Antagonists of the Human D2 Dopamine Receptor: Primary Screen for Antagonists; settings: HEK293 TREx D2 cells, calcium flux, dopamine EC80; at 10 µM; stronger effect = higher value; further: 0% is about no effect
In short: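 Read-out: kinetic calcium fluorescence (1 cycle/s) in inducible HEK293 T-REx D2 cells after an EC80 dopamine addition that followed 180 s compound preincubation. Loss of the dopamine response indicates antagonism.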

Sequence of UniProt P14416 (P14416 whole entry, looked up): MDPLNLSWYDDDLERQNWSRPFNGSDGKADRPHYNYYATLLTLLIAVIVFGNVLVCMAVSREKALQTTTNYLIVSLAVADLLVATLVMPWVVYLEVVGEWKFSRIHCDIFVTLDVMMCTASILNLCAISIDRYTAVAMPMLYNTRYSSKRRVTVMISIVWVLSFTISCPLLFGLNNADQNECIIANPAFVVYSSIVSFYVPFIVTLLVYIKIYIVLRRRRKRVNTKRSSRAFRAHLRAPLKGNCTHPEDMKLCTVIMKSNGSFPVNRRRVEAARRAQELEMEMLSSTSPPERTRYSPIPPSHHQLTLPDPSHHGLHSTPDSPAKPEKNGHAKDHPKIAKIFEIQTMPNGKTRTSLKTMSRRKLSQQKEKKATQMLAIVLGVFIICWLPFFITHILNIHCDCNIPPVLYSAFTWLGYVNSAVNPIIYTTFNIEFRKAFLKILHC

| SMILES | inhibition |
| --- | --- |
| CCOC(=O)c1cc(NC(=O)c2ccc(F)cc2)c(=O)n2c1oc1ccccc12 | -1.16% |
| Cc1ccc(OCCSc2ncccn2)c(C)c1 | active: 36.7% |
| Cn1c(=O)c2cc(C(=O)N3CCN(c4ccc(Cl)cc4)CC3)sc2c2ccccc21 | -15.2% |
| Cc1oc(-c2ccc(C(=O)Nc3cc(F)ccc3F)cc2)nc1COc1ccccc1 | 4.74% |
| Cc1cc(C)cc(NC(=S)NC2CC3CCC(C2)N3Cc2ccco2)c1 (stereo not drawn) | active: 45.7% |
| CCC(C)NC(=O)c1cnn(-c2ccc(Cl)cc2)c1C1CCN(C(=O)OC(C)(C)C)CC1 (stereo not drawn) | 8.44% |
| O=C(NCCc1ccc(Cl)cc1)c1ccc(CS(=O)Cc2cccc(Cl)c2)o1 (stereo not drawn) | -6.87% |
| Nc1nnc(SCC(=O)Nc2ccccc2C(F)(F)F)s1 | 4.63% |
| COC(=O)c1n[nH]n(-c2ccccc2)c1=O | 6.25% |
| Cc1ccn2c(Nc3ccc4c(c3)OCCO4)c(-c3ccc(Cl)s3)nc2c1 | -1.38% |
| CN(C1CCCCC1)S(=O)(=O)c1ccc2c(c1)c(=O)c(C(=O)NCCc1ccccc1)cn2C | 0.0707% |
| Cc1ccc2c(c1)cc(C(=O)Nc1ccc(F)cc1F)n2C | -23.5% |
| Cc1cccc(NC(=O)C2CCCN(S(=O)(=O)c3cnc[nH]3)C2)c1C (stereo not drawn) | 25.4% |
| COc1cc(C(=O)Oc2c(Sc3ccc(C)cc3)c(C)nn2-c2ccccc2)cc(OC)c1OC | 23.9% |
| CCOc1ccccc1NC(=O)c1c(NC(=O)c2ccccc2C)sc2c1CCC(C)C2 (stereo not drawn) | -0.141% |
| COC(=O)c1c(C)sc(-c2c(-c3ccc4c(c3)OCCO4)[nH]c3c2c(=O)n(C)c(=O)n3C)c1O | 5.06% |
| CCNC(=O)c1cnc2sc(N3CCCCCC3)nn2c1=O | 4.16% |
| COc1cccc(NC(=O)CN(C)S(=O)(=O)c2ccc3nc(C)sc3c2)c1 | 5.88% |
| COc1ccc(C)cc1N(C)C(=O)c1c(C)oc2ncnc(N3CCOCC3)c12 | 2.39% |
| COc1ccc(OC)c(CN2CCCC(C(=O)c3ccccc3SC)C2)c1 (stereo not drawn) | active: 50.7% |
| CN(c1ccc(Cl)cc1)S(=O)(=O)c1nnc(NC(=O)C2CCCCC2)s1 | 20.2% |
| CCOc1ccc(OCC)c(NC(=O)Cn2ncc3c4ccccc4n(Cc4ccccc4)c3c2=O)c1 | 13.5% |
| CSc1nnc(CCNS(=O)(=O)c2ccccc2Br)n1C | active: 33.6% |
| CCc1ccc(CNC(=O)c2cccc(-n3cnc4cccnc43)c2C)cc1 | 3.55% |
| CCC1CN(C(=O)N2CCC(C(=O)NCCN(C)C)CC2)c2ccccc2O1 (stereo not drawn) | 26.9% |

| SMILES | inhibition |
| --- | --- |
| Cn1ccc2cc(S(=O)(=O)N3CCCN(C(=O)Nc4ccccc4Br)CC3)ccc21 | -15.3% |
| Cc1ccc(NC(=O)c2cnc(SCC(=O)N3CCOCC3)n(C)c2=O)cc1 | 18.2% |
| COc1cc(-c2noc(-c3ccc(NCc4cccnc4)c([N+](=O)[O-])c3)n2)cc(OC)c1OC | -12% |
| COc1ccc(OC)c(CNC(=O)CCCn2ccc3cc(S(=O)(=O)N4CCCC4)ccc32)c1 | 6.92% |
| CCOc1ccc(CNC(=O)CCC(=O)N2CC(C)Sc3ccccc32)cc1 (stereo not drawn) | 9.36% |
| CCOc1ccc(CCNC(=O)CCCn2nc(C)c3sc4ccccc4c3c2=O)cc1OCC | -27.6% |
| O=C(CSc1nccn1-c1ccccc1)Nc1nc2ccccc2s1 | 26.3% |
| CCCc1cc(=O)[nH]c(Nc2ccc(C(=O)O)cc2)n1 | 12.7% |
| N#C/C(=C/c1cn(Cc2ccc(F)cc2)c2ccccc12)C(=O)Nc1cccc(Cl)c1 | -15.2% |
| CCn1c2ccccc2c2nnc(SCCN3CCCCC3)nc21 | 6.54% |
| COc1ccccc1Nc1nn2c(=O)c3ccc(C(=O)NCCCOC(C)C)cc3nc2s1 | -1% |
| COC(=O)CC1c2cc(OC)c(OC)cc2CCN1C(=O)Nc1ccc(C)cc1Cl (stereo not drawn) | -5.9% |
| CCOC(=O)c1cccc(NC(=O)C(CC(C)C)N2Cc3ccccc3C2=O)c1 (stereo not drawn) | 1.35% |
| Cc1ccc(CN(C(=O)COc2cccc([N+](=O)[O-])c2)c2ccccn2)o1 | -5.98% |
| O=S(=O)(Nc1ccc(Cl)cc1)c1ccc(NS(=O)(=O)c2ccc3c(c2)OCCO3)cc1 | -27.6% |
| CCC(=O)N1CCc2cc(Br)cc(S(=O)(=O)N3CCCC(C(=O)Nc4ccc(OC)c(Cl)c4)C3)c21 (stereo not drawn) | 21.7% |
| Cn1nnnc1SCCNCc1ccc(F)cc1 | 8.15% |
| Cc1cccc(-c2nc(CS(=O)CC(=O)NCc3cccs3)c(C)o2)c1 (stereo not drawn) | active: 39.1% |
| COc1ccc2oc(=O)c(C(=O)NCCc3c(C)[nH]c4c(Cl)cccc34)cc2c1 | 17.4% |
| COc1cc2ccccc2cc1C(=O)Nc1cccc(-c2nc3cc(C)c(C)cc3o2)c1C | -8.94% |
| Cc1nc2nc(NCc3cccc(Br)c3)[nH]n2c(=O)c1Cc1ccccc1 | 10.3% |
| O=C(Nc1cccc(Cl)c1Cl)c1ccc2c(c1)N(Cc1cccc(Cl)c1)C(=O)c1ccccc1S2(=O)=O | 15.7% |
| CCc1ccccc1NC(=O)N1CCN(c2cc(-c3noc(C)n3)ccc2C)CC1 | 10.7% |
| Cc1ccc(C(=S)N2CCN(Cc3ccccc3)CC2)s1 | active: 50% |
| Cc1ccc(C)c(NC(=O)c2ccc(CN3CC(=O)N4CCCCC4C3=O)cc2)c1 (stereo not drawn) | -8.92% |

| SMILES | inhibition |
| --- | --- |
| CC(=O)Nc1ccc(NC(=O)c2ccc3c(c2)N(Cc2cccc(Cl)c2)C(=O)c2ccccc2S3(=O)=O)cc1 | -4.5% |
| CCn1c(CN2CCCCC2)nc2cc(NC(=O)c3cc(OC)c(OC)c(OC)c3)ccc21 | 4.63% |
| CN(Cc1ccccc1)C(=O)c1nc(-c2ccc(Cl)cc2)n2c1CCCCC2 | 8.21% |
| CC1N=C2c3ccccc3N=C(SCC(=O)NCCc3ccccc3)N2C1=O (stereo not drawn) | -4.1% |
| COc1ccc(Nc2c3c(nc4ccc(NC(=O)c5ccc(F)cc5)cc24)CCCC3)cc1OC | -3.68% |
| CCCCOc1cccc(C(=O)N(Cc2ccc(C)o2)c2ccccn2)c1 | -18.9% |
| CCOc1ccc(CCNC(=O)c2cnc3sc(N4CCCC4)nn3c2=O)cc1 | 1.75% |
| Oc1ccc(CNCC2COc3ccccc3O2)cc1 (stereo not drawn) | active: 185% |
| COc1ccc(NS(=O)(=O)c2ccc3[nH]c4c(c3c2)CCCC4)cc1OC | 5.83% |
| O=C(NC1(C(F)(F)F)NC(=O)N(CCc2ccccc2)C1=O)c1ccc(Cl)cc1 (stereo not drawn) | -3.38% |
| CCn1ccc2c(OCC(=O)Nc3ccccc3C(F)(F)F)cccc2c1=O | -19% |
| COC(=O)CC1Oc2ccc(Cl)cc2-n2cc(-c3ccccc3)nc21 (stereo not drawn) | -5.57% |
| Oc1c(C(c2ccccc2)N2CCC(O)CC2)sc2nc(-c3ccco3)nn12 (stereo not drawn) | -15% |
| COc1ccc(NC(=O)CN(C)C(=O)c2cc(S(=O)(=O)N(C)C)ccc2N2CCCC2)cc1 | active: 38.2% |
| Cc1ccc(-n2nc3c(=O)n(C(C)C(=O)NCc4ccco4)nc(C)c3c2C)cc1 (stereo not drawn) | 4.11% |
| COc1cc(OC)cc(C(=O)Nc2ccc(-n3cnnn3)c(C)c2)c1 | active: 38% |
| Cc1ccc(Cl)cc1N1CCN(CCCNC(=O)c2ccc3nc(N4CCCCC4)sc3c2)CC1 | 22% |
| O=C(NCC(c1ccco1)S(=O)(=O)c1cccs1)c1ccccc1F (stereo not drawn) | -0.415% |
| COc1cccc(CNc2cc(C)nc3nc(-c4ccc(C)cc4)nn23)c1 | 21.9% |
| COc1ccc(C2c3c(n(C)c4ccccc34)C(=O)N2CC(=O)Nc2cccc(F)c2)cc1 (stereo not drawn) | 10.5% |
| COc1ccc(NC(=O)c2oc3ccc(S(=O)(=O)N4CCOCC4)cc3c2C)cc1 | -26.5% |
| Cc1ccc(N2CC(C)Cn3c2nc2c3c(=O)n(Cc3cccc(Cl)c3)c(=O)n2C)cc1 (stereo not drawn) | 10.5% |
| O=c1oc2ccc3ccccc3c2cc1-c1nnc(Nc2ccc(F)cc2)s1 | -6.27% |
| CCCc1cc(=O)[nH]c2nnc(SCC)n12 | -2.72% |
| Cc1ccc(C)c(-n2c(N)c(C#N)c3nc4ccccc4nc32)c1 | -1.89% |

| SMILES | inhibition |
| --- | --- |
| COc1cc(C2C(=O)N(C3CCCCCC3)CC(=O)N2CCc2ccccc2)ccc1OC(C)C (stereo not drawn) | 15.6% |
| Cc1nc2ccn(Cc3ccco3)c(=O)c2cc1C(=O)NCc1ccccc1 | 2.83% |
| Cc1cc2cc(CNC(=S)NCc3ccccc3)ccc2n1C | active: 44.9% |
| COc1ccc(-c2nnc(NC(=O)c3ccccc3C)o2)cc1 | active: 51.4% |
| COc1ccccc1CNS(=O)(=O)c1cnc(N)nc1 | 14.1% |
| COc1ccc(C2=NC(C)(C)N(CC(=O)Nc3cccc(C)c3)C2=O)cc1 | 16.6% |
| COc1ccc(Cn2c(C(=O)O)c(CNCCc3cc(OC)ccc3OC)c3ccc(C)cc32)cc1 | 1.64% |
| CC(=O)Nc1ccc(S(=O)(=O)NCC2CCC(C(=O)NCCN(CC(C)C)CC(C)C)CC2)cc1 (stereo not drawn) | -23.4% |
| CN(C)C(=O)c1c(NC(=O)c2ccccc2F)sc2c1CCCC2 | 26.6% |
| Cc1ccc(S(=O)(=O)Nc2nc3n(n2)C(c2ccc(F)cc2)C=C(c2ccccc2)N3)cc1 (stereo not drawn) | 10.6% |
| CC1=C(C(=O)Nc2ccc(Cl)cc2)C(CC(C)C)n2nc(SCc3ccccc3C)nc2N1 (stereo not drawn) | 14.6% |
| O=C(c1cccn1-c1nnc(N2CCCC2)s1)N1CCN(c2ccc(Cl)cc2)CC1 | 1.66% |
| COc1cc(C2Nc3c(C)cc(C)cc3-c3cc(C)nn32)cc(OC)c1O (stereo not drawn) | 4.06% |
| O=C(c1cccc(F)c1)N1CCN(C(=O)C(c2ccccc2)c2ccccc2)CC1 | active: 31.1% |
| Cc1ccc2c(c1)C(c1ccccc1)N(C(=O)Cc1ccc(F)cc1)CC(=O)N2 (stereo not drawn) | 8.05% |
| C/C(=N\OC(=O)Nc1ccc(Cl)cc1)c1ccc(F)c(F)c1 | active: 41.1% |
| CCCS(=O)(=O)NCCc1sc2nc(-c3ccc(F)cc3)nn2c1C | -10.5% |
| Cn1c(=O)[nH]c2cc(-c3noc(-c4ccc(C#N)cc4)n3)ccc21 | -0.186% |
| CCOC(=O)c1ccccc1NC(=O)CSc1nccn1Cc1ccco1 | 0.032% |
| CC(C)Oc1ccc(C(=O)N(Cc2ccco2)Cc2cccs2)cc1 | 12.8% |
| O=C(N/N=C/c1cccc2ccccc12)c1cccnc1 | active: 37.3% |
| Cc1cccc(C)c1NC(=O)c1sc(-n2nc(C)c(Cc3ccccc3)c2C)nc1C | 7.09% |
| Cc1cc(OCC(=O)N(Cc2ccc(N(C)C)cc2)CC2CCCO2)ccc1Cl (stereo not drawn) | -9.1% |
